# Source: patent US5760092A, “Allocolchinones and uses thereof” (Brandeis University, priority 1996, dated 1998)
# Several values for one entry are separate records, joined by “and”; a condition that tells them apart may be missing. Equal entries are not always repeated.
# How the values were obtained:
# [1] = tested on: HCT-15 colon cancer cells
# [2] = tested on: SW-620 colon cancer cells; experiment: cells; details: Homo sapiens; for GI50: SW-620
# [3] = tested on: COLO 205 colon cancer cells
# [4] = tested on: NCI-H226 non-small cell lung cancer cells
# [5] = tested on: MDA-MB-231/ATCC breast cancer cells
# [6] = tested on: HCT-116 colon cancer cells
# [7] = tested on: BT-549 breast cancer cells
# [8] = tested on: PC-3 prostate cancer cells
# [9] = tested on: DU-145 prostate cancer cells
smiles,measurement,setting,value
CCCC(=O)NC1CCc2cc(OC)c(OC)c(OC)c2-c2ccc(C(C)=O)cc21 (stereo not shown),TGI,[1],> 100000 nM
same,GI50,[2],< 10 nM
same,CC50,"[2]; SW-620, read-out: LC50",> 100000 nM
same,TGI,[3],15.6 nM and < 10 nM
same,TGI,[4],18.9 nM and < 10 nM
"COc1cc2c(c(OC)c1OC)-c1ccc(OC)c(=O)cc1[C@@H](NC(C)=O)CC2 [Colchicine, reference compound]",TGI,[5],> 100000 nM
same,TGI,LOX IMVI melanoma cells,144 nM
same,TGI,HT29 colon cancer cells,114 nM
same,TGI,ACHN renal cancer cells,> 100000 nM
same,TGI,[1],1350 nM
same,TGI,[6],100000 nM
same,GI50,[2],21.7 nM
same,activity at 100 µM,"[2]; SW-620, read-out: Percent Growth, log10 conc -4.0",-31%
same,activity at 10 µM,"[2]; SW-620, read-out: Percent Growth, log10 conc -5.0",17%
same,activity at 1 µM,"[2]; SW-620, read-out: Percent Growth, log10 conc -6.0",11%
same,activity at 0.1 µM,"[2]; SW-620, read-out: Percent Growth, log10 conc -7.0",15%
same,activity at 0.01 µM,"[2]; SW-620, read-out: Percent Growth, log10 conc -8.0",68%
same,TGI,SK-MEL-2 melanoma cells,< 10 nM
same,GI50,KM12 colon cancer cells,29.5 nM
same,TGI,KM12 colon cancer cells,> 100000 nM
same,TGI,RPMI-8226 leukemia cells,> 100000 nM
same,TGI,[7],50200 nM
same,TGI,[8],> 100000 nM
same,TGI,M14 melanoma cells,28400 nM
same,TGI,[9],> 100000 nM
